In the supplement of paper PMC4996465:

Tests used:
KB3-1 = assay: viability (% of DMSO control); higher = more viable cells
Procedure: (§1)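 Eleven-dose screen of the NCATS MIPE 3 library on cells without co-treatment; CellTiter-Glo after 48 h, as % of DMSO wells.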

Nalm-6 [1] = assay: as above
Procedure: as §1

Nalm-6 [2] = assay: log AC50 of viability decrease (48 h) (log10 M); higher = less potent
Procedure: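 Eleven-dose screen of the NCATS MIPE 3 library on cells without co-treatment; CellTiter-Glo after 48 h. AC50 from the curve fit; only inhibitory curves of the better fit classes are listed.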

Structure (SMILES)	viability (KB3-1; 0.00078 µM)	viability (KB3-1; 0.00234 µM)	viability (KB3-1; 0.00702 µM)	viability (KB3-1; 0.0211 µM)	viability (KB3-1; 0.0632 µM)	viability (KB3-1; 0.19 µM)	viability (KB3-1; 0.569 µM)	viability (KB3-1; 1.71 µM)	viability (KB3-1; 5.12 µM)	viability (KB3-1; 15.4 µM)	viability (KB3-1; 46.1 µM)	viability (Nalm-6 [1]; run: 1, 0.00078 µM)	viability (Nalm-6 [1]; run: 1, 0.00234 µM)	viability (Nalm-6 [1]; run: 1, 0.00702 µM)	viability (Nalm-6 [1]; run: 1, 0.0211 µM)	viability (Nalm-6 [1]; run: 1, 0.0632 µM)	viability (Nalm-6 [1]; run: 1, 0.19 µM)	viability (Nalm-6 [1]; run: 1, 0.569 µM)	viability (Nalm-6 [1]; run: 1, 1.71 µM)	viability (Nalm-6 [1]; run: 1, 5.12 µM)	viability (Nalm-6 [1]; run: 1, 15.4 µM)	viability (Nalm-6 [1]; run: 1, 46.1 µM)	viability (Nalm-6 [1]; run: 2, 0.00078 µM)	viability (Nalm-6 [1]; run: 2, 0.00234 µM)	viability (Nalm-6 [1]; run: 2, 0.00702 µM)	viability (Nalm-6 [1]; run: 2, 0.0211 µM)	viability (Nalm-6 [1]; run: 2, 0.0632 µM)	viability (Nalm-6 [1]; run: 2, 0.19 µM)	viability (Nalm-6 [1]; run: 2, 0.569 µM)	viability (Nalm-6 [1]; run: 2, 1.71 µM)	viability (Nalm-6 [1]; run: 2, 5.12 µM)	viability (Nalm-6 [1]; run: 2, 15.4 µM)	viability (Nalm-6 [1]; run: 2, 46.1 µM)	log AC50 of viability decrease (Nalm-6 [2]; run: 1)	log AC50 of viability decrease (Nalm-6 [2]; run: 2)
COc1cc2c(Oc3ccc4[nH]c(C)cc4c3F)ncnc2cc1OCCCN1CCCC1 [Cediranib]	96.7%	96.7%	101%	97.9%	99%	96.7%	96.5%	95.7%	96.2%	94.7%	1.86%	101%	95.4%	95.4%	101%	96.6%	91.8%	100%	85%	69%	20.6%	0.283%	107%	106%	113%	113%	109%	104%	107%	93.7%	82.5%	33.9%	1.42%	-5.03	-4.88
COc1ccc(CCN2CCN(CCCc3ccccc3)CC2)cc1OC [Cutamesine hydrochloride]	108%	106%	107%	112%	108%	112%	107%	102%	104%	95.3%	87.1%	110%	120%	124%	123%	110%	113%	115%	105%	104%	85.1%	67.1%	107%	109%	104%	104%	107%	98.9%	96.9%	98.2%	96.7%	93.4%	63.2%	-4.83	-4.63
NC(=O)c1ccc(-c2nc(-c3ccc4c(c3)OCCO4)c(-c3ccccn3)[nH]2)cc1 [D-4476]	100%	88.9%	96.5%	101%	101%	100%	105%	107%	109%	108%	84.7%	103%	98.5%	95.9%	102%	108%	112%	123%	114%	111%	112%	73.8%	120%	103%	115%	117%	115%	114%	118%	118%	114%	104%	80.9%	–	-4.68
CCC[C@H](NC(=O)/C(C#N)=C/c1cccc(Br)n1)c1ccccc1 [Degrasyn]	101%	105%	105%	101%	103%	102%	102%	97.1%	89.8%	15.2%	53.4%	106%	117%	107%	114%	108%	102%	88.5%	17.1%	6.62%	4.73%	0.988%	106%	95%	98.8%	99.7%	109%	99.2%	81.4%	28.2%	3.86%	2.65%	1.41%	-6.03	-5.98
Cc1ccc(-n2nc(C(C)(C)C)cc2NC(=O)Nc2ccc(OCCN3CCOCC3)c3ccccc23)cc1 [Doramapimod]	102%	106%	93.9%	100%	99.4%	100%	106%	102%	103%	105%	88.9%	113%	117%	115%	108%	104%	108%	112%	97.9%	92.5%	88.9%	55.5%	107%	110%	107%	100%	105%	103%	104%	99.8%	103%	61.9%	52.7%	-4.73	-4.98
C=C1/C(=C\C=C2/CCC[C@]3(C)[C@@H]([C@H](C)/C=C/[C@H](C)C(C)C)CC[C@@H]23)C[C@@H](O)C[C@@H]1O [Doxercalciferol]	103%	104%	105%	110%	109%	107%	116%	115%	108%	110%	101%	107%	101%	103%	128%	110%	117%	116%	108%	104%	84.2%	-1.59%	95.7%	101%	97.5%	106%	102%	97.4%	102%	102%	100%	74.8%	-0.912%	-4.68	-4.68
COc1cc2c(cc1OC)CN(CCc1ccc(NC(=O)c3cccc4c(=O)c5cccc(OC)c5[nH]c34)cc1)CC2 [Elacridar]	100%	108%	96%	112%	105%	103%	102%	98%	99.7%	95.1%	85.7%	110%	104%	112%	118%	111%	105%	103%	104%	96.4%	84.7%	47.5%	104%	104%	107%	104%	108%	104%	101%	106%	105%	90.2%	64.8%	-4.73	-4.73

Where a name gives a salt, the structure may show the parent alone. Viability of KB3-1 and Nalm-6 cells after 48 h of drug alone (CellTiter-Glo), 11 doses over about 4.5 log units. % of DMSO wells, lower = more cell loss; AC50 from the fitted curve, lower = more potent. No active / inactive call. Nalm-6 was screened in two runs. AC50 is listed only for well-fitted inhibitory curves. KB3-1 is a HeLa-derived carcinoma line, Nalm-6 a B-cell precursor leukaemia line.
